Source: the supplement of paper PMC3334620
The full ranking holds about 33,000 sequences; the median of “E-score (-0.5 to 0.5)” is about -0.032, and the highest 2% start at about 0.36. The list shows a part of the results.

Biological target: T1, Sko1 (UniProt Q02100)
T1 sequence: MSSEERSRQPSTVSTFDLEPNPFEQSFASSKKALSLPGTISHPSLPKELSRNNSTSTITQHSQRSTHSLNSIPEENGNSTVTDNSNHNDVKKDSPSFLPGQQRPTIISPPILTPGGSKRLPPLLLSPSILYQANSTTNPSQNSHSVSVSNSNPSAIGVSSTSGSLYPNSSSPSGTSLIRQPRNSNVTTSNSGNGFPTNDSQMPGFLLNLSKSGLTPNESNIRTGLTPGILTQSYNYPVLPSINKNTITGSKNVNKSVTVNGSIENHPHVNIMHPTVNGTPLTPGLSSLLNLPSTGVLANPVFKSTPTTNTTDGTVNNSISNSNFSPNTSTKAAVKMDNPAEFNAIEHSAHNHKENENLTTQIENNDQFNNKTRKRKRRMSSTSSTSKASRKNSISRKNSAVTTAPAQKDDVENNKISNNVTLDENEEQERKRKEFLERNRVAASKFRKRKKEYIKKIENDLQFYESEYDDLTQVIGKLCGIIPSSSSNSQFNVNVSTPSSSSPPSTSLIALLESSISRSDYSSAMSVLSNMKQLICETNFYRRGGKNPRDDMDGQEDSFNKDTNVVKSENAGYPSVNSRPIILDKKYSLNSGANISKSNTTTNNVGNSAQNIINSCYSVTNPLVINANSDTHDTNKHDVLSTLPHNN
Assay: PBM E-score (8-mer binding enrichment) (E-score (-0.5 to 0.5)); higher = stronger / more preferred TF binding; most listed sequences are background and not binding sites
Conditions: protein concentration: 200 nM; construct: GST-full length
Procedure, shortened: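 Universal all-10-mer Agilent arrays, double-stranded by primer extension on fresh or once-stripped slides, were probed with about 100-200 nM GST-tagged yeast transcription factors made by PURExpress. Fluorescent anti-GST detected bound protein, and masliner normalised the scans. E-scores from the Universal PBM Analysis Suite were given to each ungapped eight-base word pooled with its reverse complement.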

Sequence | PBM E-score
TATAAACA | 0.196
CGCTGACG | 0.389
TATGTGCA | 0.0602
ACGAAACA | 0.284
AAATTAAA | 0.219
GTCTCCGA | -0.278
ACTGGCCA | -0.0192
AATCTGCC | -0.0515
GTCTGCCA | -0.00797
GTACCCTA | 0.0237
AACGTCTT | 0.328
GCATCAGA | 0.113
CGTTTAAC | 0.228
ACTAAACT | 0.133
AATTGGCT | -0.0735
ATGACAAA | 0.154
CGAGCTAG | -0.165
AAGCCACC | -0.375
CCTGAGAG | -0.265
ACCCGTTC | -0.183
AACCGCAT | 0.0182
ATCGCGAC | -0.0742
AGTTCGCA | 0.111
CCCAACGG | -0.346

Sequence | PBM E-score
ATCTAACC | 0.0767
AGAGGACA | -0.169
CGAAGGCG | -0.141
GTGTCATA | 0.298
GACAGGCC | -0.29
CGAAAGGC | -0.158
GCGGCAGA | -0.253
AAAATTGA | 0.109
AGTTTGCC | -0.13
TGGTCTAA | -0.155
CTACTGTA | 0.0799
CCCTACCA | -0.0655
CGCCGGTC | -0.213
CCGAGCCC | -0.297
ATAGTTAA | 0.129
GACAGCTC | -0.209
GAAAGGAC | 0.0992
GTTGAGCA | 0.0589
GATTGTGA | -0.0468
CGAAGCGC | -0.00893
TACTCTCA | -0.00676
GGGACATA | -0.139
ATCTCATG | 0.0116
CCTTGTCG | -0.208

Sequence | PBM E-score
AGGGCTCC | -0.358
AACTCAAG | -0.0772
CGAAAGCG | -0.0459
AGTTGGTA | 0.284
GCGACCCC | -0.285
ACTTGGCG | -0.0916
AAGAATAG | 0.165
AATGGAAC | 0.0765
ACCAGAGC | -0.16
AAGGAGCT | -0.107
CTACATGC | 0.0435
GTCGTATA | 0.269
ATCTGGCA | -0.00449
CCAGACGA | -0.194
ACGGCAAG | -0.201
ACTTGGAA | -0.0891
AATGCCAC | -0.123
AAACTTCG | 0.143
AACAGACG | 0.0476
GCAAAGAC | 0.00382
ACATCGGC | 0.0116
GCATTCAC | 0.183
ACAATAGT | 0.107
AAGAATAA | 0.104

Sequence | PBM E-score
CTGATCAA | -0.104
CATCGGAG | -0.249
CTGCAAGC | -0.164
CCAGCAGA | -0.14
GAATAGAC | 0.0663
CCAAAAGG | -0.216
GTTGATCA | 0.28
CCTCAATC | 0.0718
ACATAATA | 0.339
GTGGGTGA | 0.00321
GAAACCGA | -0.244
ACTGATGA | 0.219
AATCTAGG | 0.0298
AGCGTGTA | 0.0949
ACAGTGTG | 0.0168
CAAAAGCG | -0.165
ACAAAACT | 0.073
GGAATTCA | -0.0525
CACGGGGG | -0.27
TGACCTCA | 0.216
CAATGCTG | -0.134
GGAGTACA | -0.16
